In the antibiotic and cytotoxicity screens of Wong et al. (2023):
The other results are listed elsewhere or left out.

Assays:
[1] = test system: HSkMC (human skeletal muscle cells); assay: cytotoxicity call (relative viability < 0.9); conditions: 10 µM
[2] = test system: S. aureus RN4220; assay: growth inhibition call (relative growth <= 0.2); conditions: 50 µM

Row | Compound | cytotoxicity call [1] | growth inhibition call [2]
1 | C[C@@H]1CN([C@H](C)CO)C(=O)c2cc(NS(=O)(=O)c3ccc(F)cc3)ccc2O[C@H]1CN(C)S(=O)(=O)c1ccc(F)cc1 | inactive | inactive
2 | Cc1ccc(S(=O)(=O)Nc2ccc3c(c2)CC(=O)N([C@@H](C)CO)C[C@@H](C)[C@H](CN(C)S(=O)(=O)c2ccc(F)cc2)O3)cc1 | inactive | inactive
3 | O=C1CN(c2ccccc2)C(=O)N1 | inactive | inactive
4 | C[C@H](CO)N1C[C@H](C)[C@H](CN(C)Cc2ccc(-c3ccccc3)cc2)Oc2ccc(NC(=O)Cn3cnnn3)cc2C1=O | inactive | inactive
5 | C[C@@H](NC(=O)C[C@@H]1CC[C@@H](NC(=O)CN2CCOCC2)[C@@H](CO)O1)c1ccccc1 | inactive | inactive
6 | C#CC1(O)CCC2C3CCC4=CCCCC4C3C(=C)CC21CC (configuration not stated) | inactive | inactive
7 | CCS(=O)(=O)N1CC[C@]2(CC1)CN([C@@H](CO)c1[nH]c3cc(ccc3c12)OC)C(=O)c1ccc(cc1)F | inactive | inactive
8 | CCNc1nc(OCCO)nc(N(C)C)n1 | inactive | inactive
9 | COc1ccccc1CNC(=O)C[C@@H]1C[C@H]2c3cc(NS(=O)(=O)c4ccc(F)cc4)ccc3O[C@H]2[C@@H](CO)O1 | inactive | inactive
10 | Cc1noc(C)c1S(=O)(=O)Nc1ccc2c(c1)C(=O)N([C@H](C)CO)C[C@@H](C)[C@H](CN(C)Cc1ccc(-c3ccccc3)cc1)O2 | inactive | inactive
11 | CCCC(=O)Nc1ccc2c(c1)OC[C@H](C)N(Cc1ccc(-c3ccccn3)cc1)C[C@@H](C)[C@H](OC)CN(C)C2=O | inactive | inactive
12 | C[C@@H]1CN([C@H](C)CO)C(=O)Cc2cc(NC(=O)CCC(F)(F)F)ccc2O[C@H]1CN(C)S(=O)(=O)c1cccs1 | inactive | inactive
13 | COc1ccc2c3c(n(c2c1)C)[C@H](CO)N(C[C@]13CN(CC2CCOCC2)C1)C(=O)c1ccc(cc1)F | inactive | inactive
14 | C[C@@H]1CN([C@H](C)CO)C(=O)c2cccc(NS(=O)(=O)c3ccc(Cl)cc3)c2O[C@H]1CN(C)Cc1ccc(Cl)c(Cl)c1 | inactive | inactive
15 | COc1ccc(S(=O)(=O)N[C@@H]2CC[C@@H](CC(=O)N3CCC(Cc4ccccc4)CC3)O[C@@H]2CO)cc1 | inactive | inactive
16 | C[C@H]1CCCCO[C@@H](CN(C)C(=O)Nc2ccc3c(c2)OCO3)[C@@H](C)CN([C@@H](C)CO)C(=O)c2cc(NS(=O)(=O)c3ccc(F)cc3)ccc2O1 | inactive | inactive
17 | C[C@@H]1CN([C@H](C)CO)C(=O)Cc2cc(NC(=O)Nc3ccc(C(F)(F)F)cc3)ccc2O[C@@H]1CN(C)Cc1ccc(C(=O)O)cc1 | inactive | inactive
18 | C[C@@H]1CCCCO[C@H](CN(C)C(=O)Nc2ccc(F)cc2)[C@@H](C)CN([C@H](C)CO)C(=O)c2cc(NC(=O)c3ccncc3)ccc2O1 | inactive | inactive
19 | C[C@@H]1CN([C@@H](C)CO)C(=O)c2cc(C#CCc3ccccc3)cnc2O[C@H]1CN(C)CC1CCOCC1 | inactive | inactive
20 | C[C@@H]1CN([C@H](C)CO)C(=O)c2cc(NC(=O)Cc3ccccc3)ccc2O[C@@H](C)CCCCO[C@@H]1CN(C)Cc1ccc2c(c1)OCO2 | inactive | inactive
21 | CCc1cc(C(N)=O)c(N)s1 | inactive | inactive

Row | Compound | cytotoxicity call [1] | growth inhibition call [2]
22 | CCCNC(=O)N1C[C@@H](O)COC[C@H]2O[C@@H](CC(=O)NCCCN3CCOCC3)CC[C@@H]21 | inactive | inactive
23 | CNC[C@H]1OCCCC[C@@H](C)Oc2ccc(NS(=O)(=O)c3cn(C)cn3)cc2C(=O)N([C@@H](C)CO)C[C@H]1C | inactive | inactive
24 | CCO[C@H]1OC(C(N)=O)=C[C@@H](C)[C@@H]1CCCO | inactive | inactive
25 | CC(=O)O[C@@H]1[C@H](OC(C)=O)N(C)C(=O)N1C | inactive | inactive
26 | C[C@@H]1CN([C@H](C)CO)C(=O)Cc2cc(NC(=O)C3CCCCC3)ccc2O[C@H]1CN(C)Cc1ccc(C(F)(F)F)cc1 | inactive | inactive
27 | O=c1nc2[nH][nH]cc-2c(=O)[nH]1 | inactive | inactive
28 | C[C@@H]1CN([C@H](C)CO)C(=O)CCCn2nncc2CO[C@@H]1CN(C)S(=O)(=O)c1ccc(Cl)cc1 | inactive | inactive
29 | C[C@@H]1CN([C@H](C)CO)C(=O)c2c(c3ccccc3n2C)-c2ccccc2CO[C@H]1CN(C)C(=O)Nc1cccc(Cl)c1Cl | inactive | inactive
30 | Cc1ccc(S(=O)(=O)N(C)C[C@@H]2Oc3ccc(NS(=O)(=O)c4cccs4)cc3CC(=O)N([C@H](C)CO)C[C@@H]2C)cc1 | inactive | inactive
31 | C[C@@H]1CN([C@@H](C)CO)C(=O)Cc2cc(NC(=O)Cc3ccccc3)ccc2O[C@H]1CN(C)Cc1ccc(C(F)(F)F)cc1 | inactive | inactive
32 | C[C@@H]1CN([C@H](C)CO)C(=O)c2cccc(NS(=O)(=O)c3ccc(Cl)cc3)c2O[C@@H]1CN(C)Cc1ccc(C(F)(F)F)cc1 | inactive | inactive
33 | C[C@@H]1CCCCO[C@@H](CN(C)C(=O)Nc2cccc3ccccc23)[C@H](C)CN([C@H](C)CO)C(=O)c2cc(NC(=O)CCC(F)(F)F)ccc2O1 | inactive | inactive
34 | CN(C)Cc1cn(CC[C@H]2CC[C@@H](NS(=O)(=O)c3ccccc3)[C@H](CO)O2)nn1 | inactive | inactive
35 | Cc1noc(C)c1NC(=O)N(C)C[C@H]1Oc2c(NS(C)(=O)=O)cccc2C(=O)N([C@@H](C)CO)C[C@H]1C | inactive | inactive
36 | C[C@H](CO)N1C[C@H](C)[C@@H](CN(C)S(C)(=O)=O)Oc2ccc(NC(=O)Nc3ccc(C(F)(F)F)cc3)cc2CC1=O | inactive | inactive
37 | Cc1n[nH]c(=O)[nH]c1=O | inactive | inactive
38 | C[C@H]1CN([C@@H](C)CO)C(=O)c2cc(NS(=O)(=O)c3ccccc3)ccc2O[C@H]1CN(C)Cc1ccc(Cl)c(Cl)c1 | inactive | inactive
39 | C[C@@H]1CN([C@@H](C)CO)C(=O)c2cccc(NS(=O)(=O)c3ccc(F)cc3)c2O[C@@H]1CN(C)S(=O)(=O)c1cccs1 | inactive | inactive
40 | Nc1nc(=O)c2c([nH]1)NCC(CNc1ccc(C(=O)NC(CCC(=O)O)C(=O)O)cc1)=N2 (configuration not stated) | inactive | inactive
41 | CS(=O)(=O)OCCCCOS(C)(=O)=O | inactive | inactive
42 | C[C@@H]1CN([C@@H](C)CO)C(=O)c2cc(NC(=O)CCCN(C)C)ccc2O[C@H]1CN(C)C(=O)Nc1ccc2c(c1)OCO2 | inactive | inactive

Row | Compound | cytotoxicity call [1] | growth inhibition call [2]
43 | C[C@H](CO)N1C[C@H](C)[C@@H](CN(C)S(=O)(=O)c2ccc(F)cc2)Oc2ccc(NC(=O)Cn3cnnn3)cc2C1=O | inactive | inactive
44 | COc1ccc(S(=O)(=O)N[C@H]2CC[C@H](CC(=O)N3CCC(Cc4ccccc4)CC3)O[C@@H]2CO)cc1 | inactive | inactive
45 | C[C@H](CO)N1C[C@H](C)[C@@H](CN(C)S(=O)(=O)c2ccc(Cl)cc2)Oc2ccc(NS(C)(=O)=O)cc2C1=O | inactive | inactive
46 | O=C(C[C@@H]1C[C@@H]2c3cc(NC(=O)c4ccc5c(c4)OCO5)ccc3O[C@@H]2[C@H](CO)O1)NCC(F)(F)F | inactive | inactive
47 | C[C@H](CO)N1C[C@H](C)[C@H](CN(C)Cc2ccc(C(F)(F)F)cc2)Oc2ccc(NC(=O)C3CCCCC3)cc2CC1=O | inactive | inactive
48 | COc1cccc(S(=O)(=O)Nc2ccc3c(c2)[C@@H]2C[C@H](CC(=O)NC4CCCCC4)O[C@@H](CO)[C@@H]2O3)c1 | inactive | inactive
49 | COc1ccc(COC[C@]23N=C4Sc5ccc([N+](=O)[O-])cc5C(=O)N4[C@H](c4ccccc4O2)[C@H]3CO[Si](C)(C)C(C)(C)C)cc1 | inactive | inactive
50 | C[C@@H]1CCCCO[C@@H](CN(C)C(=O)Cc2ccccc2)[C@@H](C)CN([C@H](C)CO)C(=O)c2cc(NS(=O)(=O)c3ccc(F)cc3)ccc2O1 | inactive | inactive
51 | Cc1noc(C)c1S(=O)(=O)N(C)C[C@H]1Oc2ccc(NC(=O)NC(C)C)cc2CC(=O)N([C@@H](C)CO)C[C@@H]1C | inactive | inactive
52 | CC(=O)c1cc2c(cc1O)OC(C)(C)C=C2 | inactive | inactive
53 | C[C@H]1CN([C@@H](C)CO)C(=O)c2cccc(NS(=O)(=O)c3cn(C)cn3)c2O[C@@H]1CN(C)Cc1ccc(C(=O)O)cc1 | inactive | inactive
54 | C[C@@H]1CCCCO[C@@H](CN(C)C(=O)Nc2ccc3c(c2)OCO3)[C@H](C)CN([C@H](C)CO)C(=O)c2cc(NC(=O)C3CCCCC3)ccc2O1 | inactive | inactive
55 | COc1ccc(S(=O)(=O)Nc2ccc3c(c2)C(=O)N([C@H](C)CO)C[C@@H](C)[C@H](CN(C)S(=O)(=O)c2ccc(Cl)cc2)OCCCC[C@@H](C)O3)cc1 | inactive | inactive
56 | CC(C)NC(=O)NCC[C@H]1CC[C@H](NC(=O)CN(C)C)[C@H](CO)O1 | inactive | inactive
57 | C[C@@H]1CCCCO[C@H](CN(C)CC2CCCCC2)[C@H](C)CN([C@@H](C)CO)C(=O)c2cc(NC(=O)Cc3ccccc3)ccc2O1 | inactive | inactive
58 | C[C@@H]1CCCCO[C@@H](CN(C)S(=O)(=O)c2ccc(Cl)cc2)[C@@H](C)CN([C@H](C)CO)C(=O)c2cc(NC(=O)Cc3ccccc3)ccc2O1 | inactive | inactive
59 | C[C@@H]1CN([C@@H](C)CO)C(=O)c2cc(NC(=O)Nc3ccccc3)ccc2O[C@@H](C)CCCCO[C@@H]1CN(C)Cc1ccccc1 | inactive | inactive
60 | C[C@@H]1CN([C@H](C)CO)C(=O)Cc2cc(NC(=O)Cn3cnnn3)ccc2O[C@H]1CN(C)S(=O)(=O)c1ccc(F)cc1 | inactive | inactive
61 | COc1ccc(C#Cc2ccc3c(c2)O[C@H](CN(C)C(=O)c2ccccn2)[C@@H](C)CN([C@@H](C)CO)S3(=O)=O)cc1 | inactive | inactive
